Reference: the supplement of paper PMC4604168 (melanoma cell lines)
Some of the results follow. Repeats are few or missing, and single values can be far off.

System: UACC257
Experiment: cell count relative to DMSO control; melanoma cells; higher = more viable cells
Conditions: library dose: standard library concentration; 72 h
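Further: cells treated in 1,536-well plates, then fixed and DAPI-stained, with nuclei counted from automated high-throughput microscope images.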

Row | Structure (SMILES) | cell count [%]
1 | CC1(C)CCC(c2ccc(Cl)cc2)=C(CN2CCN(c3ccc(C(=O)NS(=O)(=O)c4ccc(N[C@H](CCN5CCOCC5)CSc5ccccc5)c(S(=O)(=O)C(F)(F)F)c4)cc3)CC2)C1 + CC(C)CCN1c2nc(Nc3cc(F)c(O)c(F)c3)ncc2N(C)C(=O)C1C [BID1870] (first compound 2 µM, partner dose 1 µM) | 29.6
2 | Cc1ccc(Nc2nccc(N(C)c3ccc4c(C)n(C)nc4c3)n2)cc1S(N)(=O)=O [Pazopanib] + COc1ccc2c(c1)CCC1C2CCC2(C)C(NCCCCCCN3C(=O)C=CC3=O)CCC12 [U73122] (first compound 2 µM, partner dose 2 µM) | 86.5
3 | CC1(C)CCC(c2ccc(Cl)cc2)=C(CN2CCN(c3ccc(C(=O)NS(=O)(=O)c4ccc(N[C@H](CCN5CCOCC5)CSc5ccccc5)c(S(=O)(=O)C(F)(F)F)c4)cc3)CC2)C1 + COc1ccc(-c2ccc3c(N4CCOCC4)nc(N4C[C@@H](C)O[C@@H](C)C4)nc3n2)cc1CO [KU0063794] (first compound 2 µM, partner dose 0.1 µM) | 30.6
4 | CC1(C)CCC(c2ccc(Cl)cc2)=C(CN2CCN(c3ccc(C(=O)NS(=O)(=O)c4ccc(N[C@H](CCN5CCOCC5)CSc5ccccc5)c(S(=O)(=O)C(F)(F)F)c4)cc3)CC2)C1 + CCN(CC)CCCCNc1ncc2cc(-c3cc(OC)cc(OC)c3)c(NC(=O)NC(C)(C)C)nc2n1 [PD173074] (first compound 2 µM, partner dose 0.5 µM) | 42
5 | CC1(C)CCC(c2ccc(Cl)cc2)=C(CN2CCN(c3ccc(C(=O)NS(=O)(=O)c4ccc(N[C@H](CCN5CCOCC5)CSc5ccccc5)c(S(=O)(=O)C(F)(F)F)c4)cc3)CC2)C1 + Oc1cc(-c2nc(-c3ccccc3)[nH]c2-c2ccncc2)ccc1Cl [L779450] (first compound 2 µM, partner dose 1 µM) | 28.6
6 | CC1(C)CCC(c2ccc(Cl)cc2)=C(CN2CCN(c3ccc(C(=O)NS(=O)(=O)c4ccc(N[C@H](CCN5CCOCC5)CSc5ccccc5)c(S(=O)(=O)C(F)(F)F)c4)cc3)CC2)C1 + O=c1cc(-c2cccc3c2Sc2ccccc2S3)oc(N2CCOCC2)c1 [KU55933] (first compound 2 µM, partner dose 5 µM) | 33.3
7 | O=C(/C=C/c1cccnc1)NCCCCC1CCN(C(=O)c2ccccc2)CC1 + c1cc(-c2cnn3cc(-c4ccc(OCCN5CCCCC5)cc4)cnc23)ccn1 [Dorsomorphin] (first compound 0.05 µM, partner dose 2 µM) | 76.8
8 | Cc1ccc(Nc2nccc(N(C)c3ccc4c(C)n(C)nc4c3)n2)cc1S(N)(=O)=O [Pazopanib] + O=C(O)C(=O)Nc1sc2c(c1C(=O)O)CCNC2 [TCS401] (first compound 2 µM, partner dose 8.33333 µM) | 74.8
9 | Cc1ccc(Nc2nccc(N(C)c3ccc4c(C)n(C)nc4c3)n2)cc1S(N)(=O)=O [Pazopanib] + COc1ccc(-c2ccc3c(N4CCOCC4)nc(N4C[C@@H](C)O[C@@H](C)C4)nc3n2)cc1CO [KU0063794] (first compound 2 µM, partner dose 0.1 µM) | 85.9
10 | Cc1ccc(Nc2nccc(N(C)c3ccc4c(C)n(C)nc4c3)n2)cc1S(N)(=O)=O [Pazopanib] + Cc1cc([N+](=O)[O-])ccc1NS(=O)(=O)c1cc(Cl)ccc1Cl [FH535] (first compound 2 µM, partner dose 5 µM) | 55.8
11 | O=C(/C=C/c1cccnc1)NCCCCC1CCN(C(=O)c2ccccc2)CC1 + Oc1nc(-c2ccc(C(F)(F)F)cc2)nc2c1CSCC2 [XAV939] (first compound 0.05 µM, partner dose 10 µM) | 81.9
12 | CC1(C)CCC(c2ccc(Cl)cc2)=C(CN2CCN(c3ccc(C(=O)NS(=O)(=O)c4ccc(N[C@H](CCN5CCOCC5)CSc5ccccc5)c(S(=O)(=O)C(F)(F)F)c4)cc3)CC2)C1 + COc1ccc(COc2ccc(Cc3cnc(N)nc3N)cc2OC)cc1 [GW2580] (first compound 2 µM, partner dose 5 µM) | 40.9
13 | O=C(/C=C/c1cccnc1)NCCCCC1CCN(C(=O)c2ccccc2)CC1 + NCC(=O)Nc1ccc(-n2nc(C(F)(F)F)cc2-c2ccc3c(ccc4ccccc43)c2)cc1 [OSU03012] (first compound 0.05 µM, partner dose 5 µM) | 76.8
